Test results as given in PubChem BioAssay (NCATS).
Several values for one entry are separate records, joined by “and”; a condition that tells them apart may be missing. Equal entries are not always repeated. This list was built around the results that the source calls inconclusive (neither active nor inactive); the mix of calls is not that of the screen. For part of these data: A potency beside an inconclusive call is a rough fit, not a confirmed value. More than one record can exist for a structure, and the calls need not agree. Activity calls are given as the source filed them. Calls follow the shape of the dose curve; as a rule, active = well fitted curve in the direction sought with a large enough effect; inconclusive = small, poorly fitted or top-dose-only effect, or another doubt; inactive = no such curve, though single readings can be large; an effect the other way counts as inactive or inconclusive.

How the values were obtained:
[1] = Viability qHTS for spleen associated tyrosine kinase inhibitor (SYKi) naive MV4-11 cells (AID 1963823); conditions: MV4-11 AML viability, CellTiter-Glo luminescence, 72 h; series mostly up to 45 µM; also: nearly all actives have a fitted effect of over 40% in size; also: potency is read from the fitted curve at half-maximal effect
How it was run: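 Cells: MV4-11, SYK inhibitor naive, 500 per well. Treatment: library compounds, 72 hr, 37 C, 5% CO2. Read-out: CellTiter-Glo luminescence after 10 min RT.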

[2] = Viability qHTS for spleen associated tyrosine kinase inhibitor (SYKi) drug resistant MV4-11 cells (AID 1963824); also: nearly all actives have a fitted effect of over 35% in size; also: potency is read from the fitted curve at half-maximal effect
How it was run: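 SYK-inhibitor-resistant MV4-11 AML cells were seeded at 500 per well onto compound and cultured 72 hours (37 °C, 5% CO2). CellTiter-Glo was then added, and after 10 min at room temperature, luminescence gave viability.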

[3] = Quantitative highthroughput screen to assess conditional lethalithy of P12 Ichikawa cells grown in Human Plasma-Like Medium with dialyzed fetal bovine serum (HPLM+ds) (AID 1963879); conditions: Potency: viability; also: nearly all actives have a fitted effect of over 35% in size; also: potency is read from the fitted curve at half-maximal effect
How it was run: (§1)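 Each medium arm—HPLM with 10% dialyzed FBS, or RPMI1640 with 5 mM glucose and 10% untreated or dialyzed FBS—was screened against an 11-point, 3-fold compound titration for 48 h at 37 °C, with CellTiter-Glo luminescence as endpoint.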

[4] = Quantitative highthroughput screen to assess conditional lethalithy of P12 Ichikawa cells grown in RPMI1640 with dialyzed fetal bovine serum (RPMI+ds) (AID 1963880); conditions: Potency: P12-Ichikawa viability; also: nearly all actives have a fitted effect of over 35% in size; also: potency is read from the fitted curve at half-maximal effect
How it was run: as §1

[5] = Quantitative highthroughput screen to assess conditional lethalithy of SEM cells grown in RPMI1640 with unreated serum (RPMI+s) (AID 1963883); conditions: SEM B-ALL cells, CellTiter-Glo viability, 48 h; viability: at 45.8 µM (top of the series); also: nearly all actives have a fitted effect of over 35% in size; also: potency is read from the fitted curve at half-maximal effect
How it was run: as §1

[6] = Quantitative highthroughput screen to assess conditional lethalithy of SEM cells grown in RPMI1640 with dialyzed fetal bovine serum (RPMI+ds) (AID 1963884); conditions: SEM B-ALL cells, RPMI+dialyzed FBS, CellTiter-Glo viability, 48 h; viability: at 45.8 µM (top of the series); also: nearly all actives have a fitted effect of over 35% in size; also: potency is read from the fitted curve at half-maximal effect
How it was run: as §1

[7] = Cellular viability qHTS for adrenocortical cancer (ACC) cell line NCI-H295R (AID 1963990); conditions: CellTiter-Glo ATP luminescence, 48 h; series mostly up to 46.1 µM; also: nearly all actives have a fitted effect of over 60% in size; also: potency is read from the fitted curve at half-maximal effect
How it was run: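 IC50 and maximal efficacy derive from four-parameter logistic modelling of titration curves, with reads scaled between DMSO-only wells (0%) and doxorubicin hydrochloride (100% inhibition). Compounds spanned up to 46 uM over 48 h.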

[8] = Cellular viability qHTS for adrenocortical cancer (ACC) cell line SW-13 (AID 1963989); conditions: SW-13 ACC cells viability, CellTiter-Glo, 48 h; activity (max response): stronger effect = lower value; also: potency is read from the fitted curve at half-maximal effect; nearly all actives have a fitted effect of over 65% in size
How it was run: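 Luminescent ATP read-out (CellTiter-Glo, 20 min at room temperature) measured metabolically competent SW-13 cells after 48 h compound treatment. Final concentrations spanned up to 46 uM; bortezomib served as positive control.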

[9] = Quantitative highthroughput screen to assess conditional lethalithy of NOMO1 cells grown in Human Plasma-Like Medium with dialyzed fetal bovine serum (HPLM+ds) (AID 1963878); conditions: NOMO1 AML cells in HPLM+ds, CellTiter-Glo viability, 48 h; viability: at 45.8 µM (top of the series); also: nearly all actives have a fitted effect of over 35% in size
How it was run: as §1

[10] = Quantitative highthroughput screen to assess conditional lethalithy of P12 Ichikawa cells grown in RPMI1640 with untreated serum (RPMI+s) (AID 1963881); conditions: Potency: viability; also: nearly all actives have a fitted effect of over 35% in size; also: potency is read from the fitted curve at half-maximal effect
How it was run: as §1

[11] = Quantitative highthroughput screen to assess conditional lethalithy of SEM cells grown in Human Plasma-Like Medium with dialyzed fetal bovine serum (HPLM+ds) (AID 1963882); also: nearly all actives have a fitted effect of over 35% in size; also: potency is read from the fitted curve at half-maximal effect
How it was run: as §1
Tags tell the direction and shape of the fitted curve.

| SMILES | Potency [1] | Potency [2] | Potency [3] | Potency [4] | Potency [5] | Potency [6] | Potency [7] | Potency [8] | Potency [9] | Potency [10] | Potency [11] |
| --- | --- | --- | --- | --- | --- | --- | --- | --- | --- | --- | --- |
| CN(CCOc1ccc(NS(C)(=O)=O)cc1)CCc1ccc(NS(C)(=O)=O)cc1 | inconclusive: 0.0017 µM [rising, full curve, poor fit] | inactive | inactive | inactive | inactive | inconclusive: 9.35 µM [cytotoxic, single point] | inactive | – | – | – | – |
| CC(C)c1nn(-c2c(Cl)cccc2Cl)c2nc(Cc3ccc(OCCO)cc3)[nH]c(=O)c12 | inconclusive: 18.4 nM [cytotoxic, full curve] and inconclusive: 18.6 nM [cytotoxic, full curve] | active: 20.6 nM and inconclusive: 37.2 nM [cytotoxic, full curve] | active: 0.166 µM | active: 0.148 µM | inconclusive: 0.105 µM [cytotoxic, full curve] | – | – | active: 0.0501 µM | – | – | – |
| Cc1c(-c2ccnn2C)cc(C(=O)NCc2ccc(S(C)(=O)=O)cn2)c(=O)n1-c1cccc(C(F)(F)F)c1 | inactive | inactive | – | – | – | inactive | inactive | – | inactive | – | – |
| COc1ccc(C(=O)CC(=O)c2ccc(C(C)(C)C)cc2)cc1 | inactive and active: 14.8 µM | inactive | inactive | – | – | – | – | – | – | inactive | inactive |
| CC[C@H](C)C(=O)O[C@H]1C[C@H](O)C=C2C=C[C@H](C)[C@H](CC[C@@H](O)C[C@@H](O)CC(=O)O)[C@H]21 | inactive | inconclusive: 23.5 µM [cytotoxic, partial curve] | – | – | – | – | inconclusive: 25.1 µM [cytotoxic, partial curve, poor fit] | – | inactive | – | inactive |
| Cn1cnc([N+](=O)[O-])c1Sc1ncnc2nc[nH]c12 | inconclusive: 4.28 µM [cytotoxic, full curve] and inconclusive: 5.31 µM [cytotoxic, partial curve] and active: 5.9 µM | inconclusive: 2.99 µM [cytotoxic, full curve] | inconclusive: 2.64 µM [cytotoxic, full curve] | – | inconclusive: 1.48 µM [cytotoxic, full curve] | inconclusive: 1.05 µM [cytotoxic, full curve] | – | – | – | inconclusive: 7.43 µM [cytotoxic, full curve] | inconclusive: 10.5 µM [cytotoxic, full curve] |
| CC(=O)OCC(=O)[C@@]1(O)[C@H](C)C[C@H]2[C@@H]3C=C(C)C4=Cc5c(cnn5-c5ccccc5)C[C@]4(C)[C@@H]3[C@@H](O)C[C@@]21C | inconclusive: 7.42 µM [cytotoxic, full curve, poor fit] | inconclusive: 5.9 µM [cytotoxic, full curve] | inconclusive: 0.0296 µM [cytotoxic, full curve] | inconclusive: 0.0132 µM [cytotoxic, full curve] | inconclusive: 0.0209 µM [cytotoxic, full curve] | – | – | – | – | inconclusive: 0.0132 µM [cytotoxic, full curve] | inconclusive: 0.0264 µM [cytotoxic, full curve] |
| COC(=O)[C@H](CCCN=C(N)N)NS(=O)(=O)c1ccc(C)cc1 | inactive | inactive | inactive | inconclusive: 9.35 µM [cytotoxic, full curve, poor fit] | inconclusive: 9.35 µM [cytotoxic, full curve] | inconclusive: 9.35 µM [cytotoxic, full curve] | – | – | – | inactive | inconclusive: 8.33 µM [cytotoxic, full curve] |
| O=c1c(O)c(-c2ccc(O)c(O)c2)oc2cc(O)cc(O)c12 | inconclusive: 14.6 µM [cytotoxic, partial curve] | inconclusive: 23.7 µM [cytotoxic, partial curve, poor fit] and inactive | inconclusive: 20.9 µM [cytotoxic, partial curve, poor fit] | inconclusive: 26.4 µM [cytotoxic, single point] | inconclusive: 33.2 µM [cytotoxic, single point] | inconclusive: 37.2 µM [cytotoxic, single point] | inconclusive: 29.1 µM [cytotoxic, single point] | – | – | – | – |
